The text below walks through data of the supplement of paper PMC3334620.

Over roughly 33,000 sequences, “E-score (-0.5 to 0.5)” has its median near -0.056; the highest 2% begin near 0.38. The list shows a part of the results.

This test has as its target Stb4 (UniProt P50104). Briefly: PBM E-score (8-mer binding enrichment) (E-score (-0.5 to 0.5)); higher = stronger / more preferred TF binding; most listed sequences are background and not binding sites. Particulars: protein concentration: 200 nM; construct: GST-DNA-binding domain. As for the experimental part:
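Universal 'all 10-mer' protein binding microarrays (Agilent AMADID 015681) probed with GST-tagged S. cerevisiae TFs (full-length or DBD) made by in vitro transcription/translation (PURExpress), about 100-200 nM. Bound TF was detected with fluorescent anti-GST. Each ungapped 8-mer (which stands for itself and its reverse complement) is scored by the PBM enrichment score (E-score), a modified Wilcoxon-Mann-Whitney statistic from -0.5 to +0.5, computed with the Universal PBM Analysis Suite. Scale: above 0.35 generally sequence-specific binding.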
As for AAGTCAGC, the “PBM E-score” value is -0.13.

Regarding AATTTCGG, the “PBM E-score” value stood at 0.393. For ACTGTCCT the value was -0.105; for AAATTTTG, -0.0365. As to GCTTCTCC, the “PBM E-score” value is -0.0282.

Take TTCGCCAA: the “PBM E-score” value is -0.255. For CTGGTACC the value was -0.0941; for ATGCGGAC, 0.0624.

Take CGTCAATA: the “PBM E-score” value is -0.058. For ACAGTGAC the value was -0.023; for CATCGGCG, 0.165; for GGCTACCC, 0.0991. Under GGATCCGA stands 0.459; under ACCCGGAC, 0.268. In the case of AAAAAACA, the “PBM E-score” value is 0.0653. Consider ATTATCTA, for which the “PBM E-score” value was -0.0238. Under GTTATGCA stands -0.198. Under GACATGTC stands -0.207; under GAAGGCGA, -0.051; under ATCATACC, 0.103. Under CCTGCCTA stands -0.101; under AGTTGTTG, -0.219. Regarding CAGAGCGG, the “PBM E-score” value was -0.0262. Consider ATATACTA, for which the “PBM E-score” value was found to be 0.1.

In the case of CCCGTGTA, the “PBM E-score” value is 0.128. Take CCTGAGAA: the “PBM E-score” value was -0.0307.

As for TCAGTCGA, the “PBM E-score” value was -0.107. For AAGAAACG the value was -0.084. Under CGCATTAC stands 0.0606; under GCTGCACC, 0.085; under AACTGTAA, -0.104. For CCCGGAAC the value was 0.416; for GAGGCCGC, -0.0762; for CTACCATC, 0.0541. As for ATCTCATA, the “PBM E-score” value is -0.0412. Under AGAGCTTA stands -0.146; under CGGACCCG, 0.346; under ACCTCATC, -0.12. On to CGGGCTTA, for which the “PBM E-score” value stood at 0.14. Under AAAAGAGC stands -0.189; under CGTAACTA, -0.18. Under ATGTAGGA stands -0.18. As to CGGTTTTC, the “PBM E-score” value was found to be 0.239. Under ATCGACAT stands 0.00232; under AGTATATC, 0.138. In the case of CGTTCGGC, the “PBM E-score” value was 0.368. Take CAAGTCCC: the “PBM E-score” value is -0.0804. Under GTGGGACA stands -0.0153; under ATGTCCAC, -0.0406; under ATCCTATA, -0.0575. For the sequence GACCGTAC, the “PBM E-score” value is 0.0178.

As to CACTGAAA, the “PBM E-score” value is -0.0776. Under CGATAATC stands -0.0136; under ACGTCACC, -0.0588. Under GATTACAC stands -0.12. As for ACCTTCAC, the “PBM E-score” value was -0.0961. For ATATTATC the value was -0.0226; for GCAAGGGA, -0.251. Under AGCGGGTG stands 0.0899. For CATAGCCA the value was -0.156.

For AGTCGCTA, the “PBM E-score” value was -0.174. For CTAGGCCC the value was -0.0168; for GTCGCCTA, 0.00181. For AGCGAGCA the value was -0.145. Take CCACGGAC: the “PBM E-score” value came out at 0.012.

In the case of CGAGCCAA, the “PBM E-score” value worked out at 0.00699.

Turning to ACACCAGG, the “PBM E-score” value is -0.154. Take CTCGCTCC: the “PBM E-score” value was found to be 0.0527. Under AAATCAAC stands -0.136.

In the case of ACGCGGGC, the “PBM E-score” value is 0.174.

On to AATACGCA, for which the “PBM E-score” value is -0.161. For AGGTATTC the value was -0.139. Take ACCTCGCA: the “PBM E-score” value was -0.227. For AACAGCAA the value was -0.125. Regarding CGCCAAGC, the “PBM E-score” value is -0.132.

For ACACACGC, the “PBM E-score” value came out at 0.0995. In the case of AACCGTGA, the “PBM E-score” value was 0.0656. As to CTTACCCC, the “PBM E-score” value is -0.0993. With ACTTGTTG, the “PBM E-score” value is -0.303. For CTCAGAAA the value was -0.232; for AAGAGACG, 0.119; for AGTACGCA, -0.272. CGGCTCTA: the “PBM E-score” value is 0.257. Under ATGTACCG stands 0.204; under AAGGAGTG, -0.0911. Under ACCAATAT stands -0.151.
